Reference: publication PMC12678687
Results are given in words; binding and its absence hold for the method and conditions named. Binding seen in cells or lysates may run through a third protein. Some entries that bind do so weakly or less than the wild type. Where a sequence is shown, tags or fusion partners need not be part of it.

The chains behind the UniProt entries cited, without tags or fusion partners.
UniProt Q9LR78: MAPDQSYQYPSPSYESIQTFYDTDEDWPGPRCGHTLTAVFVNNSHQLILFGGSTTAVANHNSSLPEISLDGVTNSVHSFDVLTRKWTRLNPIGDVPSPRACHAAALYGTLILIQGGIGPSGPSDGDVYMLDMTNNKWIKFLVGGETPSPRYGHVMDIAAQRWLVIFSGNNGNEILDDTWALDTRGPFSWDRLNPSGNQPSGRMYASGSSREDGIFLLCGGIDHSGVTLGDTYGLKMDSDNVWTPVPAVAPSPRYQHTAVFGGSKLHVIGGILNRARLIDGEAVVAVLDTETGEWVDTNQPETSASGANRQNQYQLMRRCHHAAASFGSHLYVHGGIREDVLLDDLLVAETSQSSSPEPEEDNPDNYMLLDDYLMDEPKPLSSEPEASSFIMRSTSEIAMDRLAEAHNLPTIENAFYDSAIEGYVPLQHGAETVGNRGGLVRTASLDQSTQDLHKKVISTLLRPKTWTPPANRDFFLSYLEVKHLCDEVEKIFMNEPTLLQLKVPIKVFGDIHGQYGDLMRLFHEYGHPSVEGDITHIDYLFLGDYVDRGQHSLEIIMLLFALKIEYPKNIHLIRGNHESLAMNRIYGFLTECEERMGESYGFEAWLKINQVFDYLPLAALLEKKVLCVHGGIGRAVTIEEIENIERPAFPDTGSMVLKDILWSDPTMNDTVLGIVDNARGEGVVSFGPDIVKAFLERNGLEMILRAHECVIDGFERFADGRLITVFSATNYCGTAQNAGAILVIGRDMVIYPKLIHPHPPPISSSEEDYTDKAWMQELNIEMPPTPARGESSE

T1: PXL1-CLuc (Arabidopsis thaliana) (UniProt Q9FRS6)
T1 sequence: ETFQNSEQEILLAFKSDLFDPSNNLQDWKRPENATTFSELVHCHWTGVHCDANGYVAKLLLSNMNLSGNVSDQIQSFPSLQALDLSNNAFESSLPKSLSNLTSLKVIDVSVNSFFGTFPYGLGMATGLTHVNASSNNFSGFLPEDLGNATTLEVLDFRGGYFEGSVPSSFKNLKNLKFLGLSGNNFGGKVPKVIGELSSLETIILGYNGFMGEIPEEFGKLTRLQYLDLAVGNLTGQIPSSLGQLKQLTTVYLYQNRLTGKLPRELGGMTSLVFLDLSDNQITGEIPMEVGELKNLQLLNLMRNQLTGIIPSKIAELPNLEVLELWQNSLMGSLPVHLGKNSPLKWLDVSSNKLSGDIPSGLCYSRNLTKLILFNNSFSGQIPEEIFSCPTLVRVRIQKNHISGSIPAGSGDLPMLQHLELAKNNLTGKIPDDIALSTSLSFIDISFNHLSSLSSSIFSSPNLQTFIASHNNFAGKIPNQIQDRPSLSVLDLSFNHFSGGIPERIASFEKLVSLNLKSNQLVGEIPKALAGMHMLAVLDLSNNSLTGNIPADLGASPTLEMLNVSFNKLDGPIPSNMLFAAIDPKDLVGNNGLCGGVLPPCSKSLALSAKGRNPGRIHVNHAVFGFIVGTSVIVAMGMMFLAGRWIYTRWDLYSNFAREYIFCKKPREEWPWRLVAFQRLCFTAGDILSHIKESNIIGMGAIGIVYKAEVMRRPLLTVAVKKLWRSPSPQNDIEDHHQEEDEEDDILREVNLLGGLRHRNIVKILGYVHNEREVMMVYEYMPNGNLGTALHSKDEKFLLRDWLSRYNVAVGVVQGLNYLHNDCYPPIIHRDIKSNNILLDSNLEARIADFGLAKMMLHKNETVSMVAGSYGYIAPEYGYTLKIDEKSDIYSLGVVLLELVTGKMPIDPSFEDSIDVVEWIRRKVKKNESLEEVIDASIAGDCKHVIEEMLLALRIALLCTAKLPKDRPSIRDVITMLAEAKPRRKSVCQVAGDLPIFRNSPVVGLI

T2: BSL1-FLAG (Arabidopsis thaliana) (UniProt Q8L7U5)
T2 sequence: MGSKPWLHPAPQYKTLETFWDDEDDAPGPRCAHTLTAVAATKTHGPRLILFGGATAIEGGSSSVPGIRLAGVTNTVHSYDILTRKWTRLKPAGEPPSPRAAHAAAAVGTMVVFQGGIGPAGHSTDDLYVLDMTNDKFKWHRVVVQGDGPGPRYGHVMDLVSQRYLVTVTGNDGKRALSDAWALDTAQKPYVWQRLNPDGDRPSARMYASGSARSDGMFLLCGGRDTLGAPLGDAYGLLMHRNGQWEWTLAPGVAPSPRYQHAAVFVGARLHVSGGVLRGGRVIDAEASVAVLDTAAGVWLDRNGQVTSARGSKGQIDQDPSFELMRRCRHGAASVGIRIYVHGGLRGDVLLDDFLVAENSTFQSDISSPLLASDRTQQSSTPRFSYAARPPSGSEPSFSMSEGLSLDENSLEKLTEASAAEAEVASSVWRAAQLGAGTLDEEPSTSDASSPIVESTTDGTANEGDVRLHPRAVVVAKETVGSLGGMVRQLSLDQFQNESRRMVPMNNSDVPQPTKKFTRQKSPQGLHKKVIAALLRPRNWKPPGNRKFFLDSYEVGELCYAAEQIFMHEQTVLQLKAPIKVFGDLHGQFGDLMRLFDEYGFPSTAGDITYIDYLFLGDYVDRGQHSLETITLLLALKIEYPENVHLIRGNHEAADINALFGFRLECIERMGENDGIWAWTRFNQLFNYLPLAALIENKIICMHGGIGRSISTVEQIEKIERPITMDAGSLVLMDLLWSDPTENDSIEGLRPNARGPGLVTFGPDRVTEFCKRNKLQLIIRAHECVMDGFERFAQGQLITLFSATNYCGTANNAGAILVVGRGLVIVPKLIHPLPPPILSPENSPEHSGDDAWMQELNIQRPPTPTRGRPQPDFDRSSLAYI


Assays:
[1] = molecular target: T1, PXL1-CLuc (Arabidopsis thaliana); assay: split reporter; luciferase complementation imaging (LCI) in Nicotiana benthamiana leaves; PXL1-CLuc with NLuc fusions, 48 h after infiltration, luciferin sprayed
[2] = molecular target: T2, BSL1-FLAG (Arabidopsis thaliana); assay: co-IP; PXL1-MYC and BSL1-FLAG co-expressed in Nicotiana benthamiana with or without CLE19 peptide treatment; extract incubated with anti-FLAG beads at 4°C for 3 h; blots with anti-MYC and anti-FLAG

Molecule	binding [1]	binding [2]
BSL1-NLuc (enzyme, UniProt Q8L7U5 1-881) MGSKPWLHPAPQYKTLETFWDDEDDAPGPRCAHTLTAVAATKTHGPRLILFGGATAIEGGSSSVPGIRLAGVTNTVHSYDILTRKWTRLKPAGEPPSPRAAHAAAAVGTMVVFQGGIGPAGHSTDDLYVLDMTNDKFKWHRVVVQGDGPGPRYGHVMDLVSQRYLVTVTGNDGKRALSDAWALDTAQKPYVWQRLNPDGDRPSARMYASGSARSDGMFLLCGGRDTLGAPLGDAYGLLMHRNGQWEWTLAPGVAPSPRYQHAAVFVGARLHVSGGVLRGGRVIDAEASVAVLDTAAGVWLDRNGQVTSARGSKGQIDQDPSFELMRRCRHGAASVGIRIYVHGGLRGDVLLDDFLVAENSTFQSDISSPLLASDRTQQSSTPRFSYAARPPSGSEPSFSMSEGLSLDENSLEKLTEASAAEAEVASSVWRAAQLGAGTLDEEPSTSDASSPIVESTTDGTANEGDVRLHPRAVVVAKETVGSLGGMVRQLSLDQFQNESRRMVPMNNSDVPQPTKKFTRQKSPQGLHKKVIAALLRPRNWKPPGNRKFFLDSYEVGELCYAAEQIFMHEQTVLQLKAPIKVFGDLHGQFGDLMRLFDEYGFPSTAGDITYIDYLFLGDYVDRGQHSLETITLLLALKIEYPENVHLIRGNHEAADINALFGFRLECIERMGENDGIWAWTRFNQLFNYLPLAALIENKIICMHGGIGRSISTVEQIEKIERPITMDAGSLVLMDLLWSDPTENDSIEGLRPNARGPGLVTFGPDRVTEFCKRNKLQLIIRAHECVMDGFERFAQGQLITLFSATNYCGTANNAGAILVVGRGLVIVPKLIHPLPPPILSPENSPEHSGDDAWMQELNIQRPPTPTRGRPQPDFDRSSLAYI	binds	–
BSL2-NLuc (enzyme, UniProt Q9SJF0 1-1018) MDEDSSMVADNDQDREFQSLDGGQSPSPMERETPQQMNDQSPPPEGGSVPTPPPSDPNPATSQQQAAAVVGQEQQPALVVGPRCAPTYSVVDAMMDKKEDGPGPRCGHTLTAVPAVGDEGTPGYIGPRLVLFGGATALEGNSGGTGTPTSAGSAGIRLAGATADVHCYDVLSNKWTRLTPFGEPPTPRAAHVATAVGTMVVIQGGIGPAGLSAEDLHVLDLTQQRPRWHRVVVQGPGPGPRYGHVMALVGQRYLMAIGGNDGKRPLADVWALDTAAKPYEWRKLEPEGEGPPPCMYATASARSDGLLLLCGGRDANSVPLASAYGLAKHRDGRWEWAIAPGVSPSSRYQHAAVFVNARLHVSGGALGGGRMVEDSSSVAVLDTAAGVWCDTKSVVTSPRTGRYSADAAGGDASVELTRRCRHAAAAVGDLIFIYGGLRGGVLLDDLLVAEDLAAAETTYAASHAAAAAATNSPPGRLPGRYGFSDERNRELSESAADGAVVLGSPVAPPVNGDMHTDISPENALLPGTRRTNKGVEYLVEASAAEAEAISATLAAAKARQVNGEVELPDRDCGAEATPSGKPTFSLIKPDSMGSMSVTPAGIRLHHRAVVVAAETGGALGGMVRQLSIDQFENEGRRVSYGTPESATAARKLLDRQMSINSVPKKVIAHLLKPRGWKPPVRRQFFLDCNEIADLCDSAERIFASEPTVLQLKAPIKIFGDLHGQFGDLMRLFDEYGSPSTAGDISYIDYLFLGDYVDRGQHSLETISLLLALKVEYQHNVHLIRGNHEAADINALFGFRIECIERMGERDGIWVWHRINRLFNWLPLAASIEKKIICMHGGIGRSINHVEQIENIQRPITMEAGSIVLMDLLWSDPTENDSVEGLRPNARGPGLVTFGPDRVMEFCNNNDLQLIVRAHECVMDGFERFAQGHLITLFSATNYCGTANNAGAILVLGRDLVVVPKLIHPLPPALSSPETSPERHIEDTWMQELNANRPATPTRGRPQNSNDRGGSLAWM	binds	–

The next lines start with the values.

binding [1]	binding [2]	Molecule
no binding	–	BSU1-NLuc (from UniProt Q9LR78 1-793) (enzyme)
binds	–	BSL3-NLuc (enzyme, UniProt Q9SHS7 1-1006) MDLDSSMVPENDQDPIATSENQSPMEEKEEASEQQTGSESESASLTPSLPPPSQQQQQQQQQPQVTAVVGPRCAPTYSVVNAIIEKKEDGPGPRCGHTLTAVPAVGEEGTSSYIGPRLILFGGATALEGNSGGTGTPTSAGSAGIRLAGATADVHCYDVLSNKWSRLTPYGEPPSPRAAHVATAVGTMVVIQGGIGPAGLSAEDLHVLDLTQQRPRWHRVVVQGPGPGPRYGHVMALVGQRYLMAIGGNDGKRPLADVWALDTAAKPYEWRKLEPEGEGPPPCMYATASARSDGLLLLCGGRDANSVPLASAYGLAKHRDGRWEWAIAPGVSPSARYQHAAVFVNARLHVSGGALGGGRMVEDSSSVAVLDTAAGVWCDTKSVVTSPRTGRYSADAAGGDASVELTRRCRHAAAAVGDLIFIYGGLRGGVLLDDLLVAEDLAAAETTSAASHAAAAAAATNTPPGRSPGRYGFSDERTGELPESAPDAVVLGSPVAPPVNGDMYTDISTENAMVPGIRRTSKGVEYLVEASAAEAEAISATLAAAKARQVNGEVELPDRDRGAEATPSGKPSLSLIKPDSAVPNSVIPAGVRLHHRAVVVAAETGGALGGMVRQLSIDQFENEGRRVSYGTPESATAARKLLDRQMSINSVPKKVVAHLLKPRGWKPPVRRQFFLDCNEIADLCDSAERIFSSEPTVLQLKAPIKIFGDLHGQFGDLMRLFDEYGSPSTAGDISYIDYLFLGDYVDRGQHSLETITLLLALKVEYQHNVHLIRGNHEAADINALFGFRIECIERMGERDGIWVWHRINRLFNWLPLAALIEKKIICMHGGIGRSINHVEQIENIQRPITMEAGSIVLMDLLWSDPTENDSVEGLRPNARGPGLVTFGPDRVMEFCNNNDLQLIVRAHECVMDGFERFAQGHLITLFSATNYCGTANNAGAILVLGRDLVVVPKLIHPLPPAITSPETSPERHIEDTWMQELNVNRPPTPTRGRPQNPNDRGSLAWI
–	binds	PXL1-MYC (receptor, UniProt Q9FRS6 24-1029) ETFQNSEQEILLAFKSDLFDPSNNLQDWKRPENATTFSELVHCHWTGVHCDANGYVAKLLLSNMNLSGNVSDQIQSFPSLQALDLSNNAFESSLPKSLSNLTSLKVIDVSVNSFFGTFPYGLGMATGLTHVNASSNNFSGFLPEDLGNATTLEVLDFRGGYFEGSVPSSFKNLKNLKFLGLSGNNFGGKVPKVIGELSSLETIILGYNGFMGEIPEEFGKLTRLQYLDLAVGNLTGQIPSSLGQLKQLTTVYLYQNRLTGKLPRELGGMTSLVFLDLSDNQITGEIPMEVGELKNLQLLNLMRNQLTGIIPSKIAELPNLEVLELWQNSLMGSLPVHLGKNSPLKWLDVSSNKLSGDIPSGLCYSRNLTKLILFNNSFSGQIPEEIFSCPTLVRVRIQKNHISGSIPAGSGDLPMLQHLELAKNNLTGKIPDDIALSTSLSFIDISFNHLSSLSSSIFSSPNLQTFIASHNNFAGKIPNQIQDRPSLSVLDLSFNHFSGGIPERIASFEKLVSLNLKSNQLVGEIPKALAGMHMLAVLDLSNNSLTGNIPADLGASPTLEMLNVSFNKLDGPIPSNMLFAAIDPKDLVGNNGLCGGVLPPCSKSLALSAKGRNPGRIHVNHAVFGFIVGTSVIVAMGMMFLAGRWIYTRWDLYSNFAREYIFCKKPREEWPWRLVAFQRLCFTAGDILSHIKESNIIGMGAIGIVYKAEVMRRPLLTVAVKKLWRSPSPQNDIEDHHQEEDEEDDILREVNLLGGLRHRNIVKILGYVHNEREVMMVYEYMPNGNLGTALHSKDEKFLLRDWLSRYNVAVGVVQGLNYLHNDCYPPIIHRDIKSNNILLDSNLEARIADFGLAKMMLHKNETVSMVAGSYGYIAPEYGYTLKIDEKSDIYSLGVVLLELVTGKMPIDPSFEDSIDVVEWIRRKVKKNESLEEVIDASIAGDCKHVIEEMLLALRIALLCTAKLPKDRPSIRDVITMLAEAKPRRKSVCQVAGDLPIFRNSPVVGLI
